The RNAGym collection of RNA variant scans (doi:10.1093/nar/gkz1192)
Read counts are not given, so values of variants with three or more changes are uncertain.

B1: CPEB3 Ribozyme (parent)
chain: UAACAGGGGGCCACAGCAGAAGCGUUCACGUCGCAGCCCCUGUCAGAUUCUGGUGAAUCUGCGAAUUCUGCUGUAUAUCUC

Variants of: B1
Experiment: self-cleavage, relative activity (ratio to wild type); higher = more cleavage; in vitro, sequencing
Summary of the method: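 For each CPEB3 ribozyme variant, relative activity is its cleaved/total read fraction divided by the unmutated ribozyme's. Barcoded error-prone PCR libraries were transcribed by T7 RNA polymerase (5 hours, 37°C) and held in DNase I for 15 min before an EDTA stop, with cleavage occurring throughout. Template-switching reverse transcription and Illumina sequencing were used to read the RNAs. A 5-read minimum applied, and results are the mean of three batches.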

Row | Variant | self-cleavage
1 | U26C U41C U49C U51A A75U | 0.24
2 | U26C U67A A77G | 0.07
3 | U26C G33U A45U U49C C68U | 0.04
4 | U26G U49C U80C | 0.49
5 | U26C G36C U76A | 0.19
6 | U26C G30A U41C A56G A57G U67C | 0.07
7 | U26G U67C U72C | 0.11
8 | U26C U41C U69C | 0.22
9 | U26G A45G A47U A65G U67C | 0.1
10 | U26C U66A U72A | 0.12
11 | U26C A56C U58C U60A A64U | 0.14
12 | U26C G36A G42A C44A U49C A65G | 0.06
13 | U26C U49C U54C A64G C81U | 0.22
14 | U26G A47G U80C | 0.46
15 | U26C U31A G42A A56U U74C | 0.07
16 | U26C U41C A64U | 0.27
17 | U26C U41C A64G | 0.24
18 | U26C U72C U76G | 0.55
19 | U26C C40U U54A | 0.38
20 | U26G C39U A56G U69C | 0.07
21 | U26C A64U U66A U76C | 0.22

Row | Variant | self-cleavage
22 | U26C U51A A56G | 0.43
23 | U26C U31C C32U U41A U51C A56G | 0.14
24 | U26C U43C G70U | 0.26
25 | U26C U41C G42C | 0.27
26 | U26C U49C A56G | 0.48
27 | U26C C32U A64C | 0.18
28 | U26C A47G U74A | 0.79
29 | U26C U49C G55A U72C A77C | 0.12
30 | U26C U51C U69A | 0.38
31 | U26C A56U U69C | 0.14
32 | U26C C29U A45U A57G | 0.08
33 | U26C U54C U67C C68U | 0.16
34 | U26C C38U G61U A64G U66C U80C | 0.28
35 | U26G G30C C81U | 0.18
36 | U26C C40A A64G | 0.52
37 | U26C U31C A45G U76C | 0.11
38 | U26C A35U U66C | 0.24
39 | U26C U49C C59U U67C U74A | 0.11
40 | U26C G30U U72A U74C | 0.17
41 | U26C U31C C38U U41A U51A | 0.12
42 | U26C A45G A64U U76A | 0.15

Row | Variant | self-cleavage
43 | U26G G46A U72A | 0.19
44 | U26C G53A U74C | 0.89
45 | U26C C44U U60C G61U U80C | 0.18
46 | U26C C32U A35G U51A U78A | 0.18
47 | U26G C39U A56G U60A A65G | 0.13
48 | U26C U54C G55A | 0.18
49 | U26C U48C U78C | 0.48
50 | C27A A28G A35G C68U U69C | 0.16
51 | U26C U43C U48C U74C | 0.36
52 | U26C U51A G55C | 0.26
53 | U26C A56U G63A U72G U78C | 0.2
54 | U26C C27U C32A | 0.13
55 | U26C C40U U54C U80C | 0.16
56 | C27A A35G C50A | 0.19
57 | U26C U41A U43A A45G U80C | 0.37
58 | U26C U49A U76C | 0.15
59 | U26C U31A U60C U66C | 0.09
60 | U26C U51A U58C U60C A77G | 0.11
61 | U26C G30A A47G G70A U80C | 0.07
62 | U26C U41A U74C U78G | 0.34
63 | U26C G36C U41C | 0.25

Row | Variant | self-cleavage
64 | U26C A47G A57G U58A G61A U67C | 0.15
65 | C27A A28G U41C U69C U74A U76C | 0.16
66 | U26C U69G U74C A77G | 0.37
67 | U26C U41A U51C U67C C68A | 0.25
68 | U26G A35G U67C C81U | 0.12
69 | U26C U31C A45C U72A | 0.19
70 | U26C G30A C44U A47U C59A U67C | 0.04
71 | U26C U31A U51G G52A G53A A64U U72G | 0.07
72 | U26C A47G U69C | 0.17
73 | U26C C37A U43C A64G | 0.05
74 | U26C U31C C68U U78C | 0.3
75 | U26C A35U U58C U69C | 0.12
76 | U26C A45G U74C | 0.28
77 | U26C C37U U54C | 0.19
78 | U26G C50U A64U A75U U76C | 0.05
79 | U26C U78C U80C | 0.3
80 | U26C U60C G70A C79U | 0.16
81 | C27A A47G U51A | 0.23
82 | U26C U43C U49C A56U U58C | 0.12
83 | U26C U48A G55C | 0.15
84 | C27A G33A A57G | 0.15
